Out of some 45,000 compounds screened, about 200 (0.44%) were called active. Not shown: some 7% with an inconclusive outcome. Calls come from the whole dose curve; as a rule, active = well fitted activation curve with a large enough effect; inconclusive = small, poorly fitted or top-dose-only effect; inactive = no such curve, though single readings can be large or run the other way. This is one part of the list.
Potency is the fitted concentration of half-maximal effect.

A short description of this test: qHTS of TDP-43 Inhibitors: NCGC Sytravon Library Screen. For growth rescue (activation): 0% is about no effect. Note: nearly all actives have a fitted effect of over 55% in size. The note with it: yeast TDP-43 toxicity rescue, BacTiter-Glo growth, 24 h; series mostly up to 46.1 µM; growth rescue (activation): at the top concentration. Put shortly: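 TDP-43-expressing yeast, pregrown in raffinose, seeded at OD600 0.02 in galactose medium with compound for 24 hr at 30 deg C. Growth read by BacTiter-Glo luminescence, so rescue of toxicity appears as activation.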
Turning to `Cc1cc(-c2n[nH]c(=S)n2/N=C/c2cc([N+](=O)[O-])ccc2Cl)n[nH]1`, the “growth rescue (activation)” value was inactive: -20.2%.
On the same count and under the same terms, with `Cc1ccc(-c2nn(-c3ccccc3)cc2/C=C/C(=O)Nc2nccs2)cc1` the figure was inactive: 20.6%.
As for `COc1ccc(CCCC(=O)N/N=C/c2ccc(C)cc2)cc1`, the “growth rescue (activation)” value is inactive: 15.7%.
Same read-out and setting: the value for `COc1ccc(S(=O)(=O)Nc2ccc(F)c(F)c2)cc1C(=O)N1CCOCC1` was inactive: -8.72%.
The same measure, in the same setting: with `CCOC(=O)C1(C)CCCCCN1C(=O)c1ccco1` (centres undefined) the figure was inactive: 12.1%; with `Cc1ccc(S(=O)(=O)CC(=O)Nc2cccc(C)n2)cc1`, inactive: 8.39%.
Same read-out and setting: with `c1ccc(CCn2cnc3ccccc32)cc1` the figure was inactive: -4.31%.
With `CCOC(=O)N1CCN(C(=O)c2cn(CC)c3ccc(S(=O)(=O)N4CCC(C)CC4)cc3c2=O)CC1`, the “growth rescue (activation)” value was inactive: 2.44%.
Still for that read-out and setting: the value for `CCn1c(=O)c(C(=O)NNC(=O)c2cccc(Cl)c2)c(O)c2ccccc21` was inactive: -16.3%; that for `Cn1c(CNC(=O)c2ccccc2F)nnc1SCc1ccc(Cl)cc1` was inactive: 11.5%; that for `CCOc1ncccc1C(=O)Nc1cccc(-c2nnc3n2CCCCC3)c1` was inactive: 18.3%.
Same read-out and setting: with `CC1CN(c2nc3c(c(=O)n(C)c(=O)n3C)n2Cc2c(Cl)cccc2Cl)CC(C)O1` (centres undefined) the figure was inactive: -7.35%; with `CC(=O)NC(CC(=O)OCc1ccc([N+](=O)[O-])cc1)c1ccccc1` (centres undefined), inactive: -4.83%; with `O=C(Nc1cccc(C(=O)O)c1)/C(=C\C=C\c1ccccc1)NC(=O)c1ccccc1`, inactive: -0.766%.
On the same count and under the same terms, with `CCCC/C=C1\CCc2c([nH]c3ccccc23)C1=O` the figure was inactive: 26.6%.
In the case of `Cn1c(SCC(=O)Nc2ccc(Cl)cc2F)nnc1-c1ccco1`, the “growth rescue (activation)” value was inactive: 45.4%.
On to `CCc1ccc2c(CN3CCN(S(=O)(=O)c4ccccc4F)CC3)cc(=O)oc2c1`, for which the “growth rescue (activation)” value is inactive: 7.52%.
On the same count and under the same terms, the value for `O=C(CS(=O)CC(=O)Nc1ccc(Cl)cc1)NCC1OCCc2ccccc21` (centres undefined) was inactive: 5.08%.
Turning to `C/C(=N\OC(=O)c1ccc(Br)cc1)c1ccccn1`, the “growth rescue (activation)” value is inactive: 25.9%.
The same measure, in the same setting: with `CCOC(=O)N1CCN(C(=O)c2ccccc2NC(=O)COc2ccccc2)CC1` the figure was inactive: 2.84%.
Turning to `COc1ccc(/C=N/Nc2nnc(Cc3ccc(OC)c(OC)c3)c(=O)[nH]2)cc1OC`, the “growth rescue (activation)” value is inactive: 18.4%.
Same read-out and setting: with `CC(C)(C)c1ccc(S(=O)(=O)NCc2ccc(C(=O)NCc3ccccn3)cc2)cc1` the figure was inactive: 7.8%; with `CC(=O)Nc1ccc(C)c([N+](=O)[O-])c1`, inactive: -1.86%; with `O=C(CN(c1ccccc1F)S(=O)(=O)c1ccccc1)Nc1ccccc1C(=O)N1CCOCC1`, inactive: 12.6%.
On the same count and under the same terms, with `O=C(Nc1nc2ccccc2s1)c1ccc(N2CCCCC2)c([N+](=O)[O-])c1` the figure was inactive: -7.06%; with `CCOC(=O)NC(Cc1c[nH]c2ccccc12)C(=O)NCCc1ccc(S(N)(=O)=O)cc1` (centres undefined), inactive: 4.67%; with `O=C(Nc1ccc(S(=O)(=O)N2CCOCC2)cc1)c1ccc(S(=O)(=O)N2CCOCC2)cc1`, inactive: -6.47%.
Same read-out and setting: the value for `COc1ccccc1CCNC(=O)CNC(=O)Cc1cccc2ccccc12` was inactive: 9.42%; that for `CCOC(=O)N1CCC(N(CCN(C)C)C(=S)Nc2ccccc2C)CC1` was inactive: -26%; that for `CC(C)CN(C(=O)CN1CCN(c2ccccc2F)CC1)c1c(N)n(CC(C)C)c(=O)[nH]c1=O` was inactive: -0.966%.
Regarding `O=C(NCCc1nc2ccccc2[nH]1)/C(=C/c1ccc2c(c1)OCO2)NC(=O)c1ccc(Cl)cc1Cl`, the “growth rescue (activation)” value is inactive: -3.97%.
Consider `CCCOc1ccc(C(=O)NC2CCSc3ccccc32)cc1` (centres undefined), for which the “growth rescue (activation)” value was inactive: 18.4%.
Same read-out and setting: the value for `COc1ccc(Cn2c(C)nc3oc4cc(OC)ccc4c(=O)c3c2=O)cc1` was inactive: 1.45%.
The same measure, in the same setting: the value for `COc1cccc(CC(=O)Nc2nc(-c3ccc(F)c(F)c3)cs2)c1` was inactive: 8.27%; that for `O=C(N/N=C/c1cc([N+](=O)[O-])ccc1O)c1cccc(NC(=O)c2cccc(Cl)c2)c1` was inactive: 7.42%; that for `O=C(NCC(=O)N1CCN(C(c2ccccc2)c2ccccc2)CC1)c1ccccc1F` was inactive: -17.5%.
Same read-out and setting: the value for `Cc1onc(-c2c(Cl)cccc2Cl)c1C(=O)NC1CCCCC1` was inactive: 30.4%; that for `Cc1nn(-c2ccccc2)c(N2CCCC2)c1C=O` was inactive: -5.82%.
With `COc1ccc2[nH]c(=O)c(CN(C(=O)c3ccco3)C(C)C)cc2c1`, the “growth rescue (activation)” value is inactive: -8.32%.
The same measure, in the same setting: the value for `N#C/C(C(=O)NCCc1ccccc1)=C1/N=C(NC(=O)c2cccs2)c2ccccc21` was inactive: 17.7%; that for `COc1cc(NC(=O)C2=C(N3CCOCC3)/C(=C/c3ccc(Cl)cc3)CC2)cc(OC)c1OC` was inactive: 21.6%.
The same measure, in the same setting: the value for `CCCn1c(-c2ccc[nH]c2=O)nc2ccccc21` was inactive: 5.99%; that for `C/C(Cc1ccccc1)=N/NC(=O)CNC(=O)C(c1ccccc1)c1ccccc1` was inactive: 8.4%; that for `CCc1cccc(CC)c1NC(=O)COC(=O)c1cccc(S(=O)(=O)N2CCc3ccccc3C2)c1` was inactive: 11.3%.
The same measure, in the same setting: with `COc1cc(/C=N/NC(=O)C2CC(=O)N(c3ccc(C)cc3)C2)cc(OC)c1OC` (centres undefined) the figure was inactive: 4.16%; with `COc1ccc(C(=O)CSc2nnc3ccccn23)cc1OC`, inactive: -3.27%.
Regarding `CCN1CCN(C(c2ccc(OC)cc2)c2nnnn2Cc2ccc3c(c2)OCO3)CC1` (centres undefined), the “growth rescue (activation)” value is inactive: 8.31%.
For `COc1ccc(Nc2nnc(C)c(=O)[nH]2)c(OC)c1`, the “growth rescue (activation)” value is inactive: 9.59%.
Same read-out and setting: the value for `COc1ccc(CCNC(=O)c2cc(-c3ccco3)on2)cc1OC` was inactive: 15.3%.
With `O=c1[nH]c2ccccc2nc1/C=C/c1ccc(F)cc1`, the “growth rescue (activation)” value is inactive: 9.26%.
The same measure, in the same setting: the value for `CCc1nc2c(OCc3cccc(Cl)c3)cccn2c1N(C)C(C)=O` was inactive: 3.85%; that for `CCN(c1ccc(OC)cc1)S(=O)(=O)c1nnc(NC(=O)C(C)C)s1` was inactive: -0.215%.
Consider `Cc1c(N2C(=O)c3ccc4c5c(ccc(c35)C2=O)CC4)c(=O)n(-c2ccccc2)n1C`, for which the “growth rescue (activation)” value is inactive: 5.71%.
Turning to `N#CCCN(C(=O)COc1ccc(F)cc1Br)c1ccccc1F`, the “growth rescue (activation)” value was inactive: 6.62%.
Same read-out and setting: the value for `N#Cc1ccccc1OCc1nnc(-c2ccccc2Br)o1` was inactive: 5.51%.
Still for that read-out and setting: the value for `Cn1cc(Cl)c(C(=O)Nc2nccs2)n1` was inactive: -3.31%; that for `COc1cccc(C(=O)Nc2cc(S(=O)(=O)N3CCCCC3)ccc2OC)c1` was inactive: 9.53%.
Same read-out and setting: with `CCOC(=O)c1ccccc1Cc1nc2ccccc2c(=O)[nH]1` the figure was inactive: 3.86%; with `O=c1[nH]c(CN2CCN(c3ccccc3O)CC2)nc2ccccc12`, inactive: 7.6%; with `O=C(Nc1nc2ccc(S(=O)(=O)N3CCCC3)cc2s1)c1ccco1`, inactive: -16.3%.
For the molecule `CCC(C)c1ccccc1NC(=O)COc1ccc(-c2nnco2)cc1` (centres undefined), the “growth rescue (activation)” value was inactive: 24.4%.
On to `Cc1cccc(NC(=O)Cc2c(F)cccc2Cl)n1`, for which the “growth rescue (activation)” value is inactive: 14.6%.
On to `CCCCNC(=O)C1(C)CCCCN1C(=O)c1ccc(F)cc1Cl` (centres undefined), for which the “growth rescue (activation)” value was inactive: 6.04%.
The same measure, in the same setting: with `COc1ccccc1Oc1ccnc2cc(Cl)ccc12` the figure was inactive: 7.44%; with `CC(C)N(C)C(=O)CCc1nnc(CCc2c[nH]c3ccccc23)o1`, inactive: -2.17%; with `COc1ccc(CCNC(=O)C2CCCN(S(C)(=O)=O)C2)cc1` (centres undefined), inactive: -24.3%.
With `Cc1ccc(-n2c(C)nnc2SCC(=O)N2CCOCC2)cc1`, the “growth rescue (activation)” value was inactive: 24.1%.
For `Cc1cc(NC(=O)CCC(=O)N(CC(=O)NC2CCCC2)Cc2ccc3c(c2)OCO3)no1`, the “growth rescue (activation)” value is inactive: 12.8%.
The same measure, in the same setting: with `CN(Cc1ccccc1)C(=O)[C@H]1CCC(=O)N1Cc1ccco1` the figure was inactive: 2.92%; with `COc1ccc(N(CC(O)Cn2c(C)nc3ccccc32)S(=O)(=O)c2ccccc2)cc1` (centres undefined), inactive: -3.52%.
As for `CCOC(=O)c1c(NC(=O)CNC2CCCc3ccccc32)sc(C(N)=O)c1C` (centres undefined), the “growth rescue (activation)” value is inactive: -4.25%.
On the same count and under the same terms, with `O=C(NCc1ccccc1)NCc1cccs1` the figure was inactive: 16.1%; with `C/C(=N/NC(=O)c1ccc2c(c1)OCCO2)c1ccc([N+](=O)[O-])cc1`, inactive: 9.78%.
Still for that read-out and setting: with `Cc1cccc(C2NC(c3cccc(C)c3)C([N+](=O)[O-])C(C)(C)C2[N+](=O)[O-])c1` (centres undefined) the figure was inactive: 16.1%; with `Cc1ccc(C(=O)Nc2cc(C)nn2CCC#N)cc1`, inactive: -5.12%; with `N#CCc1nc2ccc(S(=O)(=O)N3CCOCC3)cc2s1`, inactive: -25.4%.
Still for that read-out and setting: with `Cc1ccnc(N/C=C(/NC(=O)c2ccccc2)C(=O)N/N=C\c2ccc(F)cc2)n1` the figure was inactive: -8.32%; with `CN(C)c1ccc(/C=[N+](\[O-])C2N(c3ccccc3)C(=S)SC2(C)C)cc1` (centres undefined), inactive: -19.9%.
For `CC(C)CC(=O)NC(=S)NNC(=O)c1ccc([N+](=O)[O-])cc1`, the Potency was active: 11.2 µM.
Consider `CC(c1ccccc1)N1CC(C(=O)Nc2nccs2)CC1=O` (centres undefined), for which the “growth rescue (activation)” value was inactive: 17.3%.
On the same count and under the same terms, with `Cc1ccc2nc(Cl)c3cc(C(=O)NCCCN4CCCC4)sc3c2c1` the figure was inactive: 8.7%.
Regarding `CCc1nc2c(OCC=C(C)C)cccn2c1N(C)C(=O)c1ccccc1F`, the “growth rescue (activation)” value is inactive: 8.72%.
`CCNC(=O)Nc1ccc2c(c1)c(=O)n(C)n2Cc1ccc(Cl)cc1`: the “growth rescue (activation)” value was inactive: 11.5%.
On to `COc1ccc(NC(=O)COC(=O)COc2ccc(Br)cc2)cc1`, for which the “growth rescue (activation)” value was inactive: -12.2%.
Same read-out and setting: the value for `Cc1cc(NC(=O)CSc2nc3c(cnn3-c3cccc(Cl)c3)c(=O)[nH]2)no1` was inactive: 23%; that for `COc1cccc(CNC(=O)CCC2CCCN(C(=O)c3cc(C)[nH]n3)C2)c1` (centres undefined) was inactive: 5.37%; that for `CC(=O)Nc1cccc(-c2ccnc3c2CC(C(=O)Nc2ccc4c(c2)OCO4)O3)c1` (centres undefined) was inactive: -7.94%.
Same read-out and setting: the value for `COc1cc(/C=C/C(=O)N2CCCc3ccccc32)cc(OC)c1OC` was inactive: 21.1%; that for `COc1ccc(C2C(C(C)=O)=C(O)C(=O)N2c2ccccn2)cc1` (centres undefined) was inactive: -6.76%.
The same measure, in the same setting: the value for `O=C(Cc1ccccc1)Nc1c(C(=O)c2ccccc2)oc2ccccc12` was inactive: 14.8%.
Consider `Cc1nn(-c2ncc(C(F)(F)F)cc2Cl)c(=O)n1-c1ccccc1Cl`, for which the “growth rescue (activation)” value is inactive: 46.1%.
On the same count and under the same terms, the value for `Cc1cc(=O)[nH]c(SCC(=O)Nc2cc(S(=O)(=O)N(C)C)ccc2Cl)n1` was inactive: 8.58%; that for `O=C(NCCN1C(=O)S/C(=C\c2ccc(F)cc2)C1=O)c1cccc(S(=O)(=O)N2CCOCC2)c1` was inactive: 6.48%.
Take `OCc1ccccc1-c1cccc2nccn12`: the “growth rescue (activation)” value was inactive: 0.979%.
In the case of `COc1ccc(N(CC(=O)NCc2ccc(F)cc2)C(=O)Cn2nnc(-c3ccc(C)o3)n2)cc1OC`, the “growth rescue (activation)” value is inactive: 12.6%.
On the same count and under the same terms, with `Cc1ccn2cc(-c3cccc(NS(C)(=O)=O)c3)nc2c1` the figure was inactive: -10.3%; with `Cc1cccc(C)c1NC(=O)COC(=O)c1cccc2c1C(=O)c1ccccc1C2=O`, inactive: 1.59%; with `O=C(CSc1nnc(NC(=O)c2ccco2)s1)NC1CCCC1`, inactive: 15%.
The same measure, in the same setting: the value for `CC[n+]1c(S(=O)(=O)[O-])ccc2ccc(C)cc21` was inactive: 29.8%.
Same read-out and setting: with `O=C(Cc1ccccc1)NNC(=S)NC(=O)c1cccnc1` the figure was inactive: 7.3%; with `Cc1ccc(N(C(=O)c2csnn2)C(C(=O)NC2CCCCC2)c2ccco2)cc1` (centres undefined), inactive: -16%; with `Cc1cc(NC(=O)C(C)Sc2nc(-c3ccccc3)cc(=O)[nH]2)no1` (centres undefined), inactive: -25.3%.
For the molecule `Cc1cc(C)cc(Oc2nc3ccccn3c(=O)c2/C=C(\C#N)C(=O)NC2CCS(=O)(=O)C2)c1` (centres undefined), the “growth rescue (activation)” value is inactive: 4.34%.
Turning to `CSc1ccc(CNC(=O)C2CCC(=O)N(Cc3cccc(F)c3)C2)cc1` (centres undefined), the “growth rescue (activation)” value was inactive: 7.46%.
